About 230 (0.21%) of roughly 110,000 compounds showed an effect of 50% or more. This is one part of the list.
target: DPAP1 (Plasmodium falciparum, UniProt Q8IIJ9); assay: primary screen, percent inhibition; read by cleavage of a fluorogenic dipeptide substrate; higher = more effect of the substance; set-up: species or system P. falciparum D10 trophozoite lysates; single well
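Further: 30 min substrate incubation versus DMSO and 10 µM JCP410 controls.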

Chain of DPAP1 (Q8IIJ9 whole entry, looked up): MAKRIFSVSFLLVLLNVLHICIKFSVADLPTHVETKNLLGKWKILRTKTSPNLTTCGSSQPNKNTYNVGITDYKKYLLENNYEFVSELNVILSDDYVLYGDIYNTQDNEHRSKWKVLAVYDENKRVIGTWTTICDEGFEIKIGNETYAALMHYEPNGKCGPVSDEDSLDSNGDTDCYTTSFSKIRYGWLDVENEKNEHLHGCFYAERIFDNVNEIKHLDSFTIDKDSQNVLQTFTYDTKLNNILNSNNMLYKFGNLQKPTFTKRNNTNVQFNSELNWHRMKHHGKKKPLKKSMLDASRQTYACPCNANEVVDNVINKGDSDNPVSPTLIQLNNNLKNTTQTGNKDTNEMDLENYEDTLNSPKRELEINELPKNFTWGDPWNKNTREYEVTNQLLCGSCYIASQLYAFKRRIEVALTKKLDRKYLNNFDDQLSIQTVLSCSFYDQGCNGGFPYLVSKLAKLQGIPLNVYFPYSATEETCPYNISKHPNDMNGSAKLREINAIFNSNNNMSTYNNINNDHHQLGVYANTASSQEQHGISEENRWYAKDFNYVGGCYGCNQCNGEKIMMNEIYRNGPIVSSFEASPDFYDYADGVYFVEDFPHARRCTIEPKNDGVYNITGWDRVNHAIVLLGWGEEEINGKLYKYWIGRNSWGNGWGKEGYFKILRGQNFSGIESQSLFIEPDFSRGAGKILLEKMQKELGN

First: CC1=CC2=NC(=O)/C(=C\c3ccc(OC(C)c4ccccc4)cc3)C(=N)N2O1 (stereo not shown)
Second: Cc1ccc(S(=O)(=O)Nc2nc3ccccc3nc2Nc2cccc(/C=C/C(=O)O)c2)cc1
The “% Inhibition @ 10 uM” value of the first is lower: 2% for the first, 4.54% for the second.

Going from C#CC(C)(C)NC(=O)/C=C/c1ccccc1Cl to C#CC(C)(CC)NC(=O)c1cnn2c(C(F)(F)F)cc(-c3cccc(OC)c3)nc12 (stereo not shown), the “% Inhibition @ 10 uM” value falls from 5.04% to -0.703%.

Compared with c1ccc(Oc2cccc(CNc3ccc4c(c3)CCC4)c2)cc1, O=S(=O)(c1cc(Cl)ccc1Cl)N1CCc2ccccc21 is higher in “% Inhibition @ 10 uM” value: -6% for the first, 0.827% for the second.

Going from N#Cc1c(N)nc(O)c(-c2ccccc2)c1-c1ccccc1 to N#C/C(=C\Nc1ccccc1O)C(=O)NC(=O)Cc1ccccc1, the “% Inhibition @ 10 uM” value rises from -10.2% to -2.87%.

Going from O=C(NC1(C(F)(F)F)C(=O)Nc2c1c(=O)[nH]c(=O)n2-c1ccc(F)cc1)c1cccs1 (stereo not shown) to O=C1NC(=O)/C(=C\c2ccc(-c3cccc(Br)c3)o2)S1, the “% Inhibition @ 10 uM” value rises from -1.22% to 5.04%.

First: CCOc1ccc(S(=O)(=O)N(C(C)=O)c2ccc3oc(C)c(C(C)=O)c3c2)cc1
Second: CCN(CC)c1ccc(NC(=O)c2cc(OC)c(OC)c(OC)c2)cc1
The “% Inhibition @ 10 uM” value of the first is lower: -6.75% for the first, 1.86% for the second.

Compared with Cc1ccn(-c2[nH]nc(C)c2[N+](=O)[O-])n1, CCc1c(C)nc2ccc(C)cc2c1O is higher in “% Inhibition @ 10 uM” value: -5.68% for the first, 1% for the second.

Going from Cc1cc(C)n(-c2nc3c(c(=O)[nH]c(=O)n3C)n2C)n1 to CCCCN(C)C(=O)Cn1cnc2sc(C)cc2c1=O, the “% Inhibition @ 10 uM” value rises from 2.7% to 42.9%.

Going from Cc1ccc(N(CC(=O)N2CCC(C)CC2)S(C)(=O)=O)cc1C to COc1cc(/C=C2/SC(=O)N(CC(=O)Nc3ccc(C)c(C)c3)C2=O)ccc1O, the “% Inhibition @ 10 uM” value rises from -3.26% to 10%.

Compared with CCOc1ccccc1/C=C1\N=C(c2cc(OC)c(OC)c(OC)c2)OC1=O, COc1cc(NC(=O)c2cccc(OC(F)F)c2)cc(OC)c1OC is lower in “% Inhibition @ 10 uM” value: 0.0855% for the first, -5.35% for the second.

Going from O=C(O)C1Cc2c([nH]c3ccccc23)C(c2ccccc2Cl)N1 (stereo not shown) to CN(Cc1ccccc1)C(=O)CCCN1C(=O)CSc2ncccc21, the “% Inhibition @ 10 uM” value rises from -1.8% to 1.03%.

Going from CC(=O)c1cccc(N2CN=c3s/c(=C\c4ccco4)c(=O)n3C2)c1 to CCn1cc2nc(SCC(=O)NCc3ccco3)n(CCc3ccccc3)c(=O)c2n1, the “% Inhibition @ 10 uM” value falls from 2.11% to -0.166%.

Compared with CCCCn1c(S)nc2ccccc21, Cc1nc2ccccc2c2oc(C(=O)NCCC3=CCCCC3)cc12 is lower in “% Inhibition @ 10 uM” value: 4.88% for the first, 1.62% for the second.

First: Cc1ccc(OC2OC(CO)C(O)C(O)C2O)cc1 (stereo not shown)
Second: COCCN(CCc1ccncc1)S(=O)(=O)c1csc(C(N)=O)c1
The “% Inhibition @ 10 uM” value of the first is lower: -1.62% for the first, -1.41% for the second.

From article PMC6919601, “Identification of Plasmodium dipeptidyl aminopeptidase allosteric inhibitors by high throughput screening” (PLoS ONE, 2019)
